The record followed here is PMC7063047.

This test has as its target WT1 co-immunoprecipitated with FLAG-USP9X from HEK 293T cells [human (endogenous in HEK 293T)]. The test can be described thus: co-immunoprecipitation (anti-FLAG IP, western blot quantification). The conditions noted are these: n = 4 biologically independent experiments, nocodazole 15 h for mitotic arrest as described in c, parent: 1, read off a plot. (In general: Immunoblotting shows a protein as a band on a membrane.)

“FLAG-tagged USP9X^WT mutant S2563A [not stated] / WT1 co-immunoprecipitated with FLAG-USP9X from HEK 293T cells [human (endogenous in HEK 293T)] chain 1 S2563A”: the ratio to parent worked out at 0.56.
